# PubChem BioAssay (Tox21)
# “And” between values parts separate entries of the source, which are not always exact repeats. Equal entries are not always repeated. Inconclusive means that the source gave no clear call. Such entries were picked first, then a sample of the others. For some assays here: A potency beside an inconclusive call is a rough fit, not a confirmed value. A structure can be active in one record and inactive in another. The source made the active and inactive calls. Unless noted, calls follow the shape of the dose curve; as a rule, active = well fitted curve in the direction sought with a large enough effect in the repeat runs; inconclusive = weak or mixed curves; inactive = no such curve, though single readings can be large; an effect the other way counts as inactive or inconclusive.
# Columns and labels:
# [1] = target: Androgen receptor (Homo sapiens) (UniProt P10275); assay: qHTS assay to identify small molecule antagonists of the androgen receptor (AR) signaling pathway (AID 743035; active = well fitted inhibition curve with a large enough effect in the signal ratio in the repeat runs, not every such curve was filed as active; inconclusive = weak or mixed curves, or effect the other way; inactive = no such curve, though single readings can be large or run the other way; the % refers to the signal ratio; also: potency is read from the fitted curve at half-maximal effect; as to activity change, negative = inhibition: % is scaled to controls: 0 for no effect and ±100 for the full control effect); settings: HEK293 AR-UAS-bla, R1881-stimulated, beta-lactamase FRET, 16 h; activity change, negative = inhibition: at 58.5 µM (top of the series) unless noted
# Chain of UniProt P10275 (P10275 whole entry, looked up): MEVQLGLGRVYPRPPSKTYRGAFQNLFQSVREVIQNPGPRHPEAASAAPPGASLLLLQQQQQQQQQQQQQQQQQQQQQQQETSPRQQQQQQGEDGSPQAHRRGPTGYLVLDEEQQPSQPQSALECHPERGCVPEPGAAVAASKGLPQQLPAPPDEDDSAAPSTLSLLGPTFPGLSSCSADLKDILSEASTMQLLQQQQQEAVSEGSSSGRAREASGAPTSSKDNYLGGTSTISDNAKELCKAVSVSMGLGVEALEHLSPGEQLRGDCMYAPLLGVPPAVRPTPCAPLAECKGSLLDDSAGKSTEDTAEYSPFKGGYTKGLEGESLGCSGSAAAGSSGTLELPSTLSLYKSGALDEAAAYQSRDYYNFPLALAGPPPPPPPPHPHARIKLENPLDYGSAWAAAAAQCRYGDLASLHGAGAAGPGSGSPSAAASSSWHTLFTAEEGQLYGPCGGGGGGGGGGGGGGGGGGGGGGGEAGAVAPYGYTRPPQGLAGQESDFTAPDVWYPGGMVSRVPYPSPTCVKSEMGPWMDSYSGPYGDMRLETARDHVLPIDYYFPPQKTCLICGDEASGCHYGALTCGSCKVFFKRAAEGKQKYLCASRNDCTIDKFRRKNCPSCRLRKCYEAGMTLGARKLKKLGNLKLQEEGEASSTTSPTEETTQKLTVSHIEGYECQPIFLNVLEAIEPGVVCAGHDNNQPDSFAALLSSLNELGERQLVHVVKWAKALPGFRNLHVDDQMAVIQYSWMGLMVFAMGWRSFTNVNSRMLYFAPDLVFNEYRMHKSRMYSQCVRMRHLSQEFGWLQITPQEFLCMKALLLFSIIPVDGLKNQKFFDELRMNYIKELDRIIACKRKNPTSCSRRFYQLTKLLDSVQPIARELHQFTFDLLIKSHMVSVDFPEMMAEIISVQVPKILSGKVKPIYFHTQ
# Procedure, shortened: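 Steps: seed AR-UAS-bla GripTite HEK293 cells, incubate 4 h at 37C; pin in test compound, then add agonist R1881; incubate 16 h at 37C; add LiveBLAzer B/G FRET substrate, 2 h at room temperature; read fluorescence.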
# [2] = qHTS assay to identify small molecule antagonists of the thyroid receptor (TR) signaling pathway (AID 743065); settings: GH3.TRE-Luc, T3-stimulated luciferase inhibition, 23.5 h; series mostly up to 70.3 µM; also: nearly all actives have a fitted effect of over 55% in size; also: potency is read from the fitted curve at half-maximal effect; as to activity, negative = inhibition: % is scaled to controls: 0 for no effect and ±100 for the full control effect
# Procedure, shortened: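 GH3.TRE-Luc rat pituitary cells (two TREs driving luciferase) were dosed with compound, then stimulated with 1 nM T3 (final) for 23.5 h at 37 C. ONE-Glo luminescence was the read-out, with CellTiter-Fluor fluorescence as the cytotoxicity counter-screen.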
# [3] = target: Estrogen receptor (Homo sapiens) (UniProt P03372); assay: qHTS assay to identify small molecule antagonists of the estrogen receptor alpha (ER-alpha) signaling pathway (AID 743069; active = well fitted curve in the direction sought with a large enough effect in the signal ratio in the repeat runs, not every such curve was filed as active; inconclusive = weak or mixed curves, or effect the other way; inactive = no such curve, though single readings can be large or run the other way; the % refers to the signal ratio; also: potency is read from the fitted curve at half-maximal effect); settings: HEK293 ER-alpha-UAS-bla, beta-lactamase ratio, antagonist mode; activity, negative = inhibition: at 69.4 µM (top of the series) unless noted
# Chain of UniProt P03372 (P03372 whole entry, looked up): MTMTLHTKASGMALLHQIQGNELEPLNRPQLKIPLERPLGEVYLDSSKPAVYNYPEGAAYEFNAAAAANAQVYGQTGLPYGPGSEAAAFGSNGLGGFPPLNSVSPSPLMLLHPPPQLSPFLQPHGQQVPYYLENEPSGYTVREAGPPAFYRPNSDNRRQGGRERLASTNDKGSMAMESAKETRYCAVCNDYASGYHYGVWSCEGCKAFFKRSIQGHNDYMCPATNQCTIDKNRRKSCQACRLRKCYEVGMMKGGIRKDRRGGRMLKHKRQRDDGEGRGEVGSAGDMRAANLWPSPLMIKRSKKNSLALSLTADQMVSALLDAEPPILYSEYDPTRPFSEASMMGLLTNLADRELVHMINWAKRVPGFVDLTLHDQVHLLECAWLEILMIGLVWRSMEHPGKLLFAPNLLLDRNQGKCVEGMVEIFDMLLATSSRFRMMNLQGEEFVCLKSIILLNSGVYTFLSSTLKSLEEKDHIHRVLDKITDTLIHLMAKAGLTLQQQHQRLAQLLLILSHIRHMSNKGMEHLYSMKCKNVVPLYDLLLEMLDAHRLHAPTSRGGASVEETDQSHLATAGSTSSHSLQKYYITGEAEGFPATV
# Procedure, shortened: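 Beta-lactamase FRET fluorescence is read after 2 hr at room temperature with LiveBLAzer B/G substrate. Before that, ER-alpha-bla HEK293 cells sit 4 hr after plating, then receive compound plus 17beta-estradiol and incubate 18 hr at 37C.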
# [4] = qHTS assay to identify small molecule antagonists of the estrogen receptor alpha (ER-alpha) signaling pathway - cell viability counter screen (AID 743074; calls by dose curve;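 also: HEK293 cells carrying ER-alpha-UAS-bla reporter stimulated with 17beta-estradiol; nearly all actives have a fitted effect of over 45% in size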; also: potency is read from the fitted curve at half-maximal effect); settings: ERalpha-bla HEK293 viability, CellTiter-Glo luminescence, 18 h; series mostly up to 69.4 µM
# [5] = target: Androgen receptor (Homo sapiens) (UniProt P10275); assay: qHTS assay to identify small molecule agonists of the androgen receptor (AR) signaling pathway (AID 743036; active = well fitted activation curve with a large enough effect in the signal ratio in the repeat runs, with a control signal flat, not every such curve was filed as active; inconclusive = weak or mixed curves, or effect the other way; inactive = no such curve, though single readings can be large or run the other way; the % refers to the signal ratio; also: potency is read from the fitted curve at half-maximal effect; as to activation: % is scaled to controls: 0 for no effect and ±100 for the full control effect); settings: HEK293 AR-UAS-bla GripTite, beta-lactamase FRET ratio, 16 h; activation: at 62.4 µM (top of the series) unless noted
# Procedure, shortened: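 Agonist activity was scored by beta-lactamase reporter fluorescence in stably transfected HEK293 cells exposed to compounds for 16 h at 37C and 5% CO2. Substrate loading took 2 h at room temperature.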
# [6] = target: Androgen receptor (Homo sapiens) (UniProt P10275); assay: qHTS assay to identify small molecule antagonists of the androgen receptor (AR) signaling pathway using the MDA cell line (AID 743042; also: nearly all actives have a fitted effect of over 55% in size; also: potency is read from the fitted curve at half-maximal effect; as to activity change, negative = inhibition: % is scaled to controls: 0 for no effect and ±100 for the full control effect); settings: MDA-kb2 AR-luc, MMTV luciferase, R1881 antagonist, 16 h; series mostly up to 70.3 µM
# Procedure, shortened: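 MDA-kb2 breast carcinoma cells carrying MMTV-luciferase (AR/GR responsive) were co-treated with compounds and the agonist R1881 for 16 h at 37C. Inhibition read as ONE-Glo luminescence; CellTiter-Fluor fluorescence measured in parallel for cytotoxicity.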
# [7] = qHTS assay to identify small molecule antagonists of the thyroid receptor (TR) signaling pathway - cell viability counter screen (AID 743064); settings: GH3.TRE-Luc viability, CellTiter-Fluor, 24 h; activity change, negative = cytotoxic: at 70.3 µM (top of the series) unless noted; also: potency is read from the fitted curve at half-maximal effect; nearly all actives have a fitted effect of over 50% in size
# Procedure, shortened: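 Same-well viability check: GH3.TRE-Luc cells stimulated with 1 nM T3 alongside test compound for 23.5 h, followed by CellTiter-Fluor fluorescence.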
# [8] = target: Aromatase (Homo sapiens) (UniProt P11511); assay: qHTS assay to identify aromatase inhibitors (AID 743083); settings: MCF-7 aro ERE, testosterone-driven ERE luciferase, 24 h; activity, negative = inhibition: at 70.3 µM (top of the series); also: potency is read from the fitted curve at half-maximal effect; nearly all actives have a fitted effect of over 55% in size
# Chain of UniProt P11511 (P11511 whole entry, looked up): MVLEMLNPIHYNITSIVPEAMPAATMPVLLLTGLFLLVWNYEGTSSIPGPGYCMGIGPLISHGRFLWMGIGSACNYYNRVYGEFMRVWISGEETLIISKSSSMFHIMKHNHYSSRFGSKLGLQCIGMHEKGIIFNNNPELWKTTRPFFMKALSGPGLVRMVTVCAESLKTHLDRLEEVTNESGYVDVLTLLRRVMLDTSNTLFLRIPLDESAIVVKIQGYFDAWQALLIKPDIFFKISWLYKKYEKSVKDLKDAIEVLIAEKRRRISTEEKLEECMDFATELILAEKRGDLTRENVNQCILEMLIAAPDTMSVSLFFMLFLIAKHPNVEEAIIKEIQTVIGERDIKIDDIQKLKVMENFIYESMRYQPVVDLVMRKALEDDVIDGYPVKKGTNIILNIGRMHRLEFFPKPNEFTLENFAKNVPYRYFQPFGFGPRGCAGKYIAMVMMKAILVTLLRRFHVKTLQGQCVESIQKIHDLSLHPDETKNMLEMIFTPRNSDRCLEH
# [9] = target: Estrogen receptor (Homo sapiens) (UniProt P03372); assay: qHTS assay to identify small molecule agonists of the estrogen receptor alpha (ER-alpha) signaling pathway (AID 743075; calls by dose curve;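 also: HEK293 GripTite cells with ER-alpha and UAS-driven beta-lactamase reporter; potency is read from the fitted curve at half-maximal effect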); settings: HEK293 ER-alpha-UAS-bla, beta-lactamase FRET ratio, 18 h; series mostly up to 70.1 µM
# [10] = target: Estrogen receptor (Homo sapiens) (UniProt P03372); assay: qHTS assay to identify small molecule agonists of the estrogen receptor alpha (ER-alpha) signaling pathway using the BG1 cell line (AID 743079); settings: BG1Luc4E2 cells, ERE-luciferase agonist, 22 h; activation: at 70.3 µM (top of the series) unless noted; also: % is scaled to controls: 0 for no effect and ±100 for the full control effect; nearly all actives have a fitted effect of over 20% in size
# [11] = qHTS assay to identify small molecule antagonists of the androgen receptor (AR) signaling pathway - cell viability counter screen (AID 743033; also: nearly all actives have a fitted effect of over 45% in size; also: potency is read from the fitted curve at half-maximal effect); settings: AR-bla HEK293 viability, CellTiter-Glo luminescence, 16 h; activity change, negative = cytotoxicity: at 58.5 µM (top of the series) unless noted
# [12] = target: Androgen receptor (Homo sapiens) (UniProt P10275); assay: qHTS assay to identify small molecule agonists of the androgen receptor (AR) signaling pathway using the MDA cell line (AID 743040; also: % is scaled to controls: 0 for no effect and ±100 for the full control effect; nearly all actives have a fitted effect of over 20% in size); settings: MDA-kb2 AR-luc cells, MMTV luciferase, 16 h; activity change: at 70.3 µM (top of the series), stronger effect = higher value
# Procedure, shortened: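 Luciferase read-out, ONE-Glo, 30 min RT. Cells: MDA-kb2 AR-luc, MMTV promoter with AR and GR response elements. Compound exposure 16 h, 37C, 0% CO2, after 5 h pre-incubation. qHTS agonist mode.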
# [13] = qHTS assay to identify small molecule antagonists of the estrogen receptor alpha (ER-alpha) signaling pathway using the BG1 cell line - cell viability counter screen (AID 743081); settings: BG1Luc4E2 viability, CellTiter-Fluor, 22 h; activity change, negative = cytotoxicity: at 70.3 µM (top of the series) unless noted;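 also: compound given together with 17beta-estradiol as the ER stimulus; nearly all actives have a fitted effect of over 45% in size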; also: potency is read from the fitted curve at half-maximal effect
# [14] = qHTS assay to identify small molecule antagonists of the estrogen receptor alpha (ER-alpha) signaling pathway using the BG1 cell line (AID 743080; calls by dose curve;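 also: BG1 cells stimulated with 17beta-estradiol alongside compound; nearly all actives have a fitted effect of over 25% in size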; also: potency is read from the fitted curve at half-maximal effect); settings: BG1Luc4E2 ERE-luciferase antagonist mode, luminescence; activity change, negative = inhibition: at 70.3 µM (top of the series) unless noted
# Procedure, shortened: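 Readout is ONE-Glo luminescence, taken 30 min at room temperature after reagent addition, preceded by a CellTiter-Fluor viability read; BG1-Luc-4E2 cells had received compound and 17beta-estradiol for 21.5 h at 37 C.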
# Tags tell the direction and shape of the fitted curve or compound fluorescence and quenching.
structure (smiles),measurement,setting,value
COc1cc(C=O)ccc1O,Potency,[1],inconclusive: 1.24 µM
same,"activity change, negative = inhibition",[1],inconclusive: 7.76% and inconclusive: 2.89%
same,Potency,[2],inactive
same,Potency,[3],"inconclusive: 952 nM [activator, full curve, poor fit] and inconclusive: 1.24 µM [activator, full curve, poor fit] and inconclusive: 1.55 µM [activator, full curve, poor fit]"
same,Potency,[4],"inconclusive: 22 µM [rising, single point]"
C=C(C)C(=O)OC(C)C,Potency,[5],inactive
CCC(C)N(C)C(=O)c1cc2ccccc2c(-c2ccccc2Cl)n1 (stereo unspecified),Potency,[1],active: 28.2 µM
same,Potency,[6],"inconclusive: 44.4 µM [inhibitor, single point]"
same,Potency,[7],"inconclusive: 39.5 µM [cytotoxic, single point]"
same,Potency,[3],inconclusive: 35.5 µM
same,Potency,[4],inactive
same,Potency,[8],"inconclusive: 39.5 µM [inhibitor, single point]"
O=C(c1ccccc1)c1ccccc1O,Potency,[5],"inconclusive: 0.502 µM [activator, single point]"
same,Potency,[6],inactive
same,Potency,[7],"inconclusive: 68.6 µM [cytotoxic, single point]"
c1ccc2c(c1)c1cccc3ccc4cccc2c4c31,Potency,[1],inconclusive: 19.4 µM
same,"activity change, negative = inhibition",[1],inconclusive: 14.4%
same,Potency,[5],"inconclusive: 61.2 µM [fluorescent, partial curve, poor fit]"
same,activation,[5],inconclusive: 22.8%
same,Potency,[7],"inconclusive: 6.11 µM [rising, single point]"
same,Potency,[3],"inconclusive: 3.44 µM [activator, partial curve]"
same,Potency,[4],active: 3.07 µM and inactive
same,Potency,[9],"inconclusive: 34.4 µM [fluorescent, partial curve]"
same,activation,[10],inconclusive: 4.24% [phenotype inactive]
O=C(OCCCCCCOC(=O)c1ccccc1)c1ccccc1,Potency,[11],"inconclusive: 54.9 µM [cytotoxic, single point]"
same,Potency,[4],inactive
Cc1cc2c(cc1S(N)(=O)=O)S(=O)(=O)CCC2,Potency,[11],"inconclusive: 0.574 µM [cytotoxic, full curve, poor fit]"
same,Potency,[10],inactive
O=C(O)c1ccc(Cl)c(Cl)c1,Potency,[1],inactive
same,Potency,[5],inactive
same,Potency,[6],"inconclusive: 61.1 µM [inhibitor, partial curve, poor fit]"
same,Potency,[2],inactive
same,Potency,[3],"inconclusive: 24.6 µM [activator, partial curve, poor fit]"
C1COC1,Potency,[1],inactive
same,activity change,[12],inconclusive: 1.01% [phenotype inactive]
same,Potency,[7],"inconclusive: 0.0668 µM [rising, full curve, poor fit]"
same,Potency,[4],inactive
same,activation,[10],inconclusive: 5.01% [phenotype inactive]
Cc1cc(SC2=C(O)C[C@@](CCc3ccc(N)cc3)(C(C)C)OC2=O)c(C(C)(C)C)cc1CO,Potency,[5],"inconclusive: 38.9 µM [rising, partial curve, poor fit]"
same,Potency,[12],inactive
OC[C@H]1O[C@@H](O[C@@H]2[C@@H](CO)O[C@](O)(CO)[C@H]2O)[C@H](O)[C@@H](O)[C@H]1O,"activity change, negative = inhibition",[1],inconclusive: -27.8%
same,Potency,[5],inactive
same,Potency,[10],inactive
CCCCC(CC)CN1C(=O)C2C3C=CC(C3)C2C1=O (stereo unspecified),Potency,[11],"inconclusive: 61.6 µM [cytotoxic, partial curve, poor fit]"
same,Potency,[3],"inconclusive: 49 µM [rising, partial curve, poor fit]"
same,Potency,[8],inconclusive: 61.1 µM [inhibitor]
O=C(CCN1CCN(CCO)CC1)N1c2ccccc2Sc2ccc(C(F)(F)F)cc21,Potency,[1],inactive
same,Potency,[7],active: 13.3 µM
same,Potency,[4],"inconclusive: 0.0034 µM [rising, full curve, poor fit]"
same,Potency,[10],inactive
same,Potency,[13],"inconclusive: 26.6 µM [cytotoxic, partial curve]"
NS(=O)(=O)c1cc2c(cc1Cl)NC(C1CC3C=CC1C3)NS2(=O)=O (stereo unspecified),Potency,[11],"inconclusive: 0.0043 µM [cytotoxic, full curve, poor fit]"
same,Potency,[3],inactive
c1ccc(Cc2ccccc2)cc1,Potency,[11],"inconclusive: 30.9 µM [cytotoxic, partial curve, poor fit]"
same,Potency,[14],inactive
N[C@@H](CSSC[C@H](N)C(=O)O)C(=O)O,Potency,[1],inactive
same,Potency,[5],inactive
same,Potency,[6],"inconclusive: 0.0024 µM [inhibitor, full curve, poor fit]"
same,Potency,[2],inactive
CCCCCCN,Potency,[11],inactive
same,Potency,[4],inactive
CCC(C)(C)C(=O)O,Potency,[5],inactive
same,activity change,[12],inconclusive: 0.291% [phenotype inactive]
same,activation,[10],inconclusive: 4.96% [phenotype inactive]
CCN(CC)C(=O)N1CCN(C)CC1,Potency,[11],inconclusive: 0.0011 µM [cytotoxic]
same,Potency,[13],inactive
Nc1ccc(C(=O)Nc2ccccc2N)cc1,Potency,[1],"inconclusive: 8.49 µM [rising, partial curve]"
same,activation,[5],inconclusive: 19.6%
same,Potency,[2],active: 29.8 µM
same,Potency,[3],"inconclusive: 2.68 µM [activator, full curve]"
same,Potency,[14],"inconclusive: 29.8 µM [rising, partial curve]"
